Data reported in PubChem BioAssay AID1508623 (National Center for Advancing Translational Sciences (NCATS), 2021).
Among all 48,000 compounds or so, about 450 (0.94%) were called active. Roughly 19% stayed inconclusive and do not appear here. Calls follow the shape of the dose curve; as a rule, active = well fitted inhibition curve with a large enough effect; inconclusive = small, poorly fitted or top-dose-only effect; inactive = no such curve, though single readings can be large or run the other way. Some of the results follow.

Assay: Primary qHTS for Identification of Small Molecule Inhibitors of Huntingtin Promoter Activity; also: nearly all actives have a fitted effect of over 50% in size
Conditions: HEK293 HTT promoter firefly luciferase reporter (activity 0% = vehicle and -100% = no light), 24 h; series mostly up to 57.5 µM; activity change, negative = inhibition: at the top concentration
In short: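 Firefly luciferase signal from promoter-reporter HEK293 cells was scaled between vehicle (0%) and zero RLU (-100%). Compounds were tested at final concentrations of up to 57.5 uM over 24 h at 37 degrees C. PTC124 at 50 uM final served as control inhibitor.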

| SMILES | activity change, negative = inhibition |
| --- | --- |
| CCOCCCNC(=O)C(c1ccccc1)N(Cc1ccc2c(c1)OCO2)C(=O)c1ccc(NC(C)=O)cc1 (stereo unspecified) | inactive: -17.1% |
| Cc1ccccc1CN1C(=O)c2ccccc2S(=O)c2ccc(C(=O)NCc3ccc(Cl)cc3)cc21 (stereo unspecified) | inactive: -26.9% |
| Cc1ccc2cccc(NC(=O)c3ccc(OC(C)C)cc3)c2n1 | inactive: -7.51% |
| CCc1ccccc1NC(=O)CN(c1ccccc1)S(=O)(=O)c1ccsc1C(=O)OC | inactive: -23.4% |
| O=C(NCc1ccc2c(c1)OCO2)c1ccc2c(c1)N(Cc1ccccc1F)C(=O)c1ccccc1S2 | inactive: -4.19% |
| CC(C)(C)OC(=O)N1CCC(c2c(C(=O)NCCN3CCc4ccccc4C3)cnn2-c2ccc(F)cc2)CC1 | inactive: -30.6% |
| CC(C)c1ccc(OCC(=O)NCCS(=O)(=O)N2CCN(c3ccc(F)cc3)CC2)cc1 | inactive: -15.6% |
| COc1ccccc1C(=O)N1c2ncnn2C2(CCCCC2)[C@@H]2CCCC[C@@H]21 | inactive: -23.4% |
| COc1ccc(Cn2c(C(=O)O)c(CNC3CCCC3)c3ccc(OC)cc32)cc1 | inactive: -23% |
| CCn1c(=O)cc(SCC(=O)NCc2cccc(Cl)c2)c2ccccc21 | inactive: -26.9% |
| CCOC(=O)c1ccc(NC(=O)C(CC)Sc2nc3ccncc3[nH]2)cc1 (stereo unspecified) | inactive: -22.3% |
| CCOc1ccc(-c2nn(-c3ccccc3)cc2C2NC(=O)NC(C)=C2C(=O)OC(C)C)cc1 (stereo unspecified) | inactive: -26.5% |
| COCCNC(=O)c1c[nH]c2ccc(S(=O)(=O)Nc3ccc(F)cc3F)cc2c1=O | inactive: 2.5% |
| Cn1ccc2c(OCC(=O)NCc3ccccc3)cccc2c1=O | inactive: -20.1% |
| CC(C)c1nn2c(=O)cc(COC(=O)c3cccc(NC(=O)c4cccs4)c3)nc2s1 | inactive: -18.9% |
| CCc1ccc(C2=NN(CCC(=O)NCCc3ccc(OC)c(OC)c3)C(=O)CC2)cc1 | inactive: -27.6% |
| Cc1ccc(N2CC(NC(=O)c3cc4ccccc4o3)CC2=O)cc1C (stereo unspecified) | inactive: -22.8% |
| CCc1ccccc1NC(=O)CCOc1ccccc1 | inactive: -12.6% |
| CCc1ccccc1NC(=O)Cn1c(=O)n(-c2ccc(CC(=O)NCC3CCCO3)cc2)c(=O)c2ccccc21 (stereo unspecified) | inactive: -9.95% |
| COc1ccc(CSc2nc3ccncc3n2CC(=O)Nc2ccc(C)c(F)c2)cc1 | inactive: 19.9% |
| Cc1ccccc1C(=O)Nc1ccc2nc(SCC(=O)N3CCc4ccccc43)sc2c1 | inactive: -14.5% |
| COc1ccc(CNC(=O)c2ccc3c(c2)N(Cc2ccc(C)cc2)CCS3)cc1 | inactive: -30.6% |
| CCOC(=O)c1cnc2nc(NCc3cccc(Br)c3)[nH]n2c1=O | inactive: -9.05% |
| COc1ccccc1CNC(=O)CC(c1ccc(C)cc1)N1Cc2ccccc2C1=O (stereo unspecified) | inactive: -3.98% |

| SMILES | activity change, negative = inhibition |
| --- | --- |
| COc1ccc(CCNC(=O)CCS(=O)(=O)c2cc(Br)cc3c2N(C(C)=O)CC3)cc1OC | inactive: -13.1% |
| Cc1ccc(CNC(=O)C2COc3ccccc3C2)cc1 (stereo unspecified) | inactive: 58.7% |
| COC(=O)CSc1nc2sc3c(c2c(=O)n1-c1ccccc1C)CC(C)(C)OC3 | inactive: 1.21% |
| Clc1ccc(-c2nc3c4cnn(-c5ccccc5Br)c4ncn3n2)c(Cl)c1 | inactive: 8.06% |
| Cc1ccccc1NC(=O)c1sc2nc3n(c(=O)c2c1C)CCC3 | inactive: 102% |
| Cc1ccc(-n2nnc(-c3nc(-c4cccs4)no3)c2N)c(C)c1 | inactive: 64.4% |
| CC(C)c1ccc(OCC(=O)Nc2c(C(=O)c3ccc(F)cc3)oc3ccccc23)cc1 | inactive: 15.6% |
| COc1ccccc1CNC(=O)Cn1ncn2c(cc3sccc32)c1=O | inactive: 8.21% |
| Cc1ccc(Nc2c(-c3ccsc3)nc3c(C)cccn23)cc1 | inactive: -7.86% |
| COc1ccc(S(=O)(=O)NCc2cccn2Cc2cccc(C)c2)cc1 | inactive: 0% |
| COc1ccccc1NC(=O)CC(c1cc(OC)c(OC)c(OC)c1)N1Cc2ccccc2C1=O (stereo unspecified) | inactive: -8.1% |
| Cc1c(C)n(C)c2ccc(C(=O)NCc3cccc(F)c3)cc12 | inactive: 2.54% |
| COc1cc2c(cc1NC(=O)COc1ccc(Cl)cc1Br)oc1ccccc12 | inactive: -5.08% |
| Cc1cc(=O)c2cc(C(=O)Nc3ccccc3C)ccc2[nH]1 | inactive: -7.53% |
| CCOc1cc2sc(N3CCC(C(=O)Nc4cc(C)cc(C)c4)CC3)nc2cc1Br | inactive: 65% |
| COC(=O)c1cc2sc(Cl)cc2n1Cc1cc(C)ccc1C | inactive: -4.2% |
| COc1ccc(Cn2ccc3nc(C)c(C(=O)NCc4cccc(OC)c4)cc3c2=O)cc1 | inactive: -22.4% |
| CCc1ccccc1NC(=O)Cn1c2ncccc2c(=O)n1-c1ccccc1 | inactive: -27.4% |
| COC(=O)c1ccc(CSc2nnc3ccc4ccccc4n23)cc1 | inactive: 33.5% |
| COc1cc(F)c(S(=O)(=O)Nc2c(C)n(C)n(-c3ccccc3)c2=O)cc1OC | inactive: -4.92% |
| CCn1cc2c(n1)-c1c(oc(C(=O)Nc3cccc(C(F)(F)F)c3)c1C)CC2 | inactive: 6.38% |
| Cc1ccc(N(C)C(=O)c2cc(S(=O)(=O)N3CCOCC3)cn2C)cc1 | inactive: -4.25% |
| CCCN(Cc1cccs1)C(=O)Nc1cc(OC)ccc1OC | inactive: -7.36% |
| O=C(CN1CCSc2ccccc21)N1CCN(c2ccc(F)cc2)CC1 | inactive: -18.3% |

| SMILES | activity change, negative = inhibition |
| --- | --- |
| COc1ccc(CCNC(=O)CCCCn2c(=O)c3ccccc3n(Cc3ccccc3Cl)c2=O)cc1OC | inactive: -12.5% |
| COc1ccccc1-c1noc(CCCC(=O)Nc2cc(C)ccc2C)n1 | inactive: -2.63% |
| COc1ccc(C(=O)Nc2ccc(C(=O)OCc3cc(=O)n4nc(C5CC5)sc4n3)cc2)cc1 | inactive: 2.21% |
| Cc1ccc(-n2nc3c(N4CCC(C(=O)NCc5ccccc5Cl)CC4)nnc(C)c3c2C)cc1 | inactive: -2.24% |
| CC(=O)c1ccc(NC(=O)CCOc2ccccc2)cc1 | inactive: 46.5% |
| CCOC(=O)c1c(C)[nH]c(C)c1S(=O)(=O)NCC(=O)N1CCN(c2ccccc2OC)CC1 | inactive: -4.09% |
| CCN(CC)C(=O)Nc1ccc2c(c1)N(Cc1ccccc1)C(=O)c1ccccc1S2 | inactive: -5.63% |
| CCc1cccc(C)c1NC(=O)CN1CCCN(Cc2ccccc2Cl)S1(=O)=O | inactive: -23.8% |
| CCOc1ccccc1NC(=O)C(CC)n1c(C(=O)OC)cc2occc21 (stereo unspecified) | inactive: -21.8% |
| CCCn1c(=NC(=O)c2cc3ccccc3o2)c(C(=O)OCC)cc2c(=O)n3ccccc3nc21 | inactive: -15.3% |
| COc1ccc(Nc2oc(/C=C/c3cccc(OC)c3)nc2C#N)cc1 | inactive: 1.47% |
| O=C(Cn1ncc2ccsc2c1=O)N1CCN(c2ccccc2F)CC1 | inactive: -10.8% |
| CCCCN(CC)CCNC(=O)C1CCCN(S(=O)(=O)c2cccc3nsnc23)C1 (stereo unspecified) | inactive: 2.82% |
| O=S(=O)(c1ccc(-n2cnnn2)cc1)N1CCN(c2cccc(Cl)c2)CC1 | inactive: -9.36% |
| Cc1c(C(=O)N2CCCCCC2)c(S(=O)(=O)N(Cc2ccccc2)C(C)(C)C)c(C)n1C | inactive: -11.7% |
| Cc1ccc(-n2c(=O)c3cccnc3n2CC(=O)Nc2cc(Cl)ccc2C)cc1 | inactive: 10.7% |
| O=c1cc(-c2ccccc2)n2c(SCc3c(F)cccc3Cl)nnc2[nH]1 | inactive: -5.83% |
| Cc1ccc(NC(=O)C(=O)NCc2ccco2)cc1 | inactive: 48.2% |
| Cc1ccc(NC(=O)CN(C)S(=O)(=O)c2cnc[nH]2)cc1 | inactive: 9.02% |
| Cc1ccc(NC(=O)Cn2c(=O)n(CCCCC(=O)NCc3ccccc3Cl)c(=O)c3ccccc32)cc1 | inactive: 0.612% |
| COc1ccccc1OCC(=O)NCC(c1ccc(Cl)cc1)N1CCOCC1 (stereo unspecified) | inactive: -20.8% |
| CCCc1nn2c(=O)cc(COc3ccc(/C=C(\C#N)C(=O)Nc4ccccc4)cc3)nc2s1 | inactive: -10.2% |
| COc1ccc(C(CC(=O)NCc2ccccc2Cl)N2Cc3ccccc3C2=O)cc1OC (stereo unspecified) | inactive: -21.3% |
| CC(C)CC(=O)NC1(C(F)(F)F)C(=O)Nc2c1c(=O)[nH]c(=O)n2-c1ccccc1 (stereo unspecified) | inactive: 4.43% |

| SMILES | activity change, negative = inhibition |
| --- | --- |
| CCc1nonc1NC(=O)c1oc2ccc(Br)cc2c1C | inactive: -0.702% |
| CCc1ccc(-n2c(=O)c3c4c(sc3n(CC(=O)N3CCC(C)CC3)c2=O)CCC4)cc1 | inactive: -13.1% |
| CCOC(=O)c1ccc(NC(=O)CSc2cc(=O)n(CC)c3ccccc23)cc1 | inactive: -8% |
| Cc1ccc(S(=O)(=O)c2cn(Cc3cccc(C)c3)c3cc4c(cc3c2=O)OCO4)cc1 | inactive: -4.98% |
| Cc1ccc(Cl)cc1NC(=O)c1oc2ccc(S(=O)(=O)N(C)C3CCCCC3)cc2c1C | inactive: -3.59% |
| CC(=O)CSc1nnc2cc(C)c3cc(C)cc(C)c3n12 | inactive: -1.93% |
| CCOc1ccc(CN(C(=O)c2cc(=O)c3cc(C)cc(C)c3o2)C2CCS(=O)(=O)C2)cc1 (stereo unspecified) | inactive: 3.65% |
| NC(=O)CC[C@@H]1NC(=O)[C@H](Cc2ccccc2)NC(=O)[C@H](Cc2ccc(O)cc2)NC(=O)CCSSC[C@@H](C(=O)N2CCC[C@H]2C(=O)N[C@@H](CCCN=C(N)N)C(=O)NCC(N)=O)NC(=O)[C@H](CC(N)=O)NC1=O | inactive: 6.71% |
| Cc1oc2ncnc(N3CCCCC3)c2c1C(=O)N1CCN(c2cccc(Cl)c2)CC1 | inactive: -25.2% |
| CCCN1C(=O)C2(c3ccccc31)c1c(oc3ccc(F)cc3c1=O)C(=O)N2CCCOC(C)C (stereo unspecified) | inactive: -8.25% |
| c1coc(-c2nc3n(n2)C2(CCCCC2)[C@@H]2CCCC[C@@H]2N3)c1 | inactive: -27.8% |
| CN(C(=O)CSc1nnc(-c2ccccc2F)o1)C1CCCCC1 | inactive: -19.2% |
| CCN(C(=O)CSc1nc(-c2ccc(C(C)C)cc2)no1)c1cccc(C)c1 | inactive: -17% |
| Cc1ccc(-n2c(-c3ccco3)nc3c(cnn3-c3ccccc3Cl)c2=O)cc1 | inactive: -8.26% |
| Cc1cccc(C(=O)Nc2nnc(S(=O)(=O)N(C)c3ccccc3C)s2)c1 | inactive: -28.5% |
| COc1ccc(CNC(=O)CCCn2nc(C)c3c(C)n(-c4ccccc4)nc3c2=O)cc1 | inactive: 3.44% |
| CCCCCCc1ccc(O)cc1O | inactive: 5.57% |
| CCn1cc2nc(SCc3cccc(Cl)c3)n(Cc3ccc(C)cc3)c(=O)c2n1 | inactive: -10.7% |
| CC(C)c1cnc2c(c1SCC(=O)Nc1cccc(F)c1)c(=O)n(C)c(=O)n2C | inactive: -17% |
| O=C(Nc1cccc(F)c1)C1CCN(S(=O)(=O)c2cccc3nsnc23)CC1 | inactive: -9.69% |
| CCc1ccc(CN2CCc3nc(N4CCN(CC)CC4)ncc3C2)cc1 | inactive: -24.2% |
| CN(C)c1ccc(CNC(=O)CCn2cccn2)cc1 | inactive: 3.76% |
| Cc1ccc(CCNC(=O)c2ccc3c(c2)N(Cc2cccc(Cl)c2)C(=O)c2ccccc2S3(=O)=O)cc1 | inactive: -19.9% |
| Cc1cc(C)cc(OC(C)C(=O)Nc2c(C(=O)c3ccccc3)oc3ccccc23)c1 (stereo unspecified) | inactive: 0% |
